Measured values: patent US20200270321A1 (Hoffmann-La Roche, published 2020)
Blank lines part the entries; values can stand above or below the binder they belong to.

Tests used:
[1] = biological target: T1, monomeric human OX40 His molecule (human); test: SPR (Biacore T100, 25 C), fusion molecule captured by anti-human Fc, huOX40 avi His as analyte, 1:1 Langmuir fit
T1 construct: also called Hu OX40 avi His; huOX40 avi His
T1 chain: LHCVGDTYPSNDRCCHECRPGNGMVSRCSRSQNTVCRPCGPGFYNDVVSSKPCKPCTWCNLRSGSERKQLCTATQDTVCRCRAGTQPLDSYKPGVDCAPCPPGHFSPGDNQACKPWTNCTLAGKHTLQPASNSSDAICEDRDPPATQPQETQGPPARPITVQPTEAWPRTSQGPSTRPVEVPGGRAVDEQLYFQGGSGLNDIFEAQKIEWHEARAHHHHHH

[2] = biological target: T2, human fibroblast activation protein (huFAP) on cells (human, UniProt Q12884 1-760); test: flow cytometry on WM266-4 cells; FITC anti-human IgG Fc-gamma F(ab')2; median fluorescence, baseline corrected
T2 construct: Transfected in NIH/3T3-huFAP clone 39; also called NIH/3T3-huFAP clone 39; WM266-4

[3] = biological target: T3, human OX40 (CD134) on cells (human, UniProt P43489 29-277); test: flow cytometry on activated human PBMC, gate CD8+ T cells; FITC anti-human IgG Fc-gamma F(ab')2; MFI baseline corrected
T3 construct: whole, on cells
T3 sequence (looked up): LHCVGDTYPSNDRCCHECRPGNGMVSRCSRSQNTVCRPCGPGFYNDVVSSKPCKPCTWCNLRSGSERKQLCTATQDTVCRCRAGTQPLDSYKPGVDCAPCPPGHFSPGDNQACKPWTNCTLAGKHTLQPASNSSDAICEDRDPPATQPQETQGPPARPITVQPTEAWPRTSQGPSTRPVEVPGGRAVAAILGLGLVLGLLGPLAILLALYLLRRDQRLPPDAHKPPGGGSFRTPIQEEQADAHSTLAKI

[4] = biological target: T3, human OX40 (CD134) on cells; test: flow cytometry on activated human PBMC, gate CD4+ T cells; FITC anti-human IgG Fc-gamma F(ab')2; MFI baseline corrected

Kd [1]: 0.75 µM
koff [1]: 0.13 s⁻¹
kon [1]: 180000 M⁻¹ s⁻¹
binding result [2]: binds
binding result [3]: binds
B1: FAP(28H1)-targeted human OX40 ligand trimer-containing Fc (kih) fusion molecule (Compound S10) (Fc fusion)
chain: QVSHRYPRIQSIKVQFTEYKKEKGFILTSQKEDEIMKVQDNSVIINCDGFYLISLKGYFSQEVDISLHYQKDEEPLFQLKKVRSVNSLMVASLTYKDKVYLNVTTDNTSLDDFHVNGGELILIHQNPGEFCVLGGGGSGGGGSQVSHRYPRIQSIKVQFTEYKKEKGFILTSQKEDEIMKVQDNSVIINCDGFYLISLKGYFSQEVDISLHYQKDEEPLFQLKKVRSVNSLMVASLTYKDKVYLNVTTDNTSLDDFHVNGGELILIHQNPGEFCVLGGGGSGGGGSQVSHRYPRIQSIKVQFTEYKKEKGFILTSQKEDEIMKVQDNSVIINCDGFYLISLKGYFSQEVDISLHYQKDEEPLFQLKKVRSVNSLMVASLTYKDKVYLNVTTDNTSLDDFHVNGGELILIHQNPGEFCVLGSPGSSSSGS[left out - human IgG1 Fc with changes]
heavy: EVQLLESGGGLVQPGGSLRLSCAASGFTFSSHAMSWVRQAPGKGLEWVSAIWASGEQYYADSVKGRFTISRDNSKNTLYLQMNSLRAEDTAVYYCAKGWLGNFDYWGQGTLVTVSSASTKGPSVFPLAPSSKSTSGGTAALGCLVKDYFPEPVTVSWNSGALTSGVHTFPAVLQSSGLYSLSSVVTVPSSSLGTQTYICNVNHKPSNTKVDKKVEPKSCDKTHTCPPCPAPEAAGGPSVFLFPPKPKDTLMISRTPEVTCVVVDVSHEDPEVKFNWYVDGVEVHNAKTKPREEQYNSTYRVVSVLTVLHQDWLNGKEYKCKVSNKALGAPIEKTISKAKGQPREPQVCTLPPSRDELTKNQVSLSCAVKGFYPSDIAVEWESNGQPENNYKTTPPVLDSDGSFFLVSKLTVDKSRWQQGNVFSCSVMHEALHNHYTQKSLSLSPGK
light: EIVLTQSPGTLSLSPGERATLSCRASQSVSRSYLAWYQQKPGQAPRLLIIGASTRATGIPDRFSGSGSGTDFTLTISRLEPEDFAVYYCQQGQVIPPTFGQGTKVEIKRTVAAPSVFIFPPSDEQLKSGTASVVCLLNNFYPREAKVQWKVDNALQSGNSQESVTEQDSKDSTYSLSSTLTLSKADYEKHKVYACEVTHQGLSSPVTKSFNRGEC
notes: also called FAP single chain OX40L trimer; FAP single chain OX40 trimer

binding result [2]: no binding (tested: 100 nM)
EC50 (read off the curve) [4]: ~0.0008 µM
B2: DP47-containing single chain OX40 ligand trimer-containing Fc (kih) fusion molecule (Control 3) (Fc fusion)
chain: QVSHRYPRIQSIKVQFTEYKKEKGFILTSQKEDEIMKVQDNSVIINCDGFYLISLKGYFSQEVDISLHYQKDEEPLFQLKKVRSVNSLMVASLTYKDKVYLNVTTDNTSLDDFHVNGGELILIHQNPGEFCVLGGGGSGGGGSQVSHRYPRIQSIKVQFTEYKKEKGFILTSQKEDEIMKVQDNSVIINCDGFYLISLKGYFSQEVDISLHYQKDEEPLFQLKKVRSVNSLMVASLTYKDKVYLNVTTDNTSLDDFHVNGGELILIHQNPGEFCVLGGGGSGGGGSQVSHRYPRIQSIKVQFTEYKKEKGFILTSQKEDEIMKVQDNSVIINCDGFYLISLKGYFSQEVDISLHYQKDEEPLFQLKKVRSVNSLMVASLTYKDKVYLNVTTDNTSLDDFHVNGGELILIHQNPGEFCVLGSPGSSSSGS[left out - human IgG1 Fc with changes]
heavy: [left out - about 100 residues]GSGFDYWGQGTLVTVSSASTKGPSVFPLAPSSKSTSGGTAALGCLVKDYFPEPVTVSWNSGALTSGVHTFPAVLQSSGLYSLSSVVTVPSSSLGTQTYICNVNHKPSNTKVDKKVEPKSCDKTHTCPPCPAPEAAGGPSVFLFPPKPKDTLMISRTPEVTCVVVDVSHEDPEVKFNWYVDGVEVHNAKTKPREEQYNSTYRVVSVLTVLHQDWLNGKEYKCKVSNKALGAPIEKTISKAKGQPREPQVCTLPPSRDELTKNQVSLSCAVKGFYPSDIAVEWESNGQPENNYKTTPPVLDSDGSFFLVSKLTVDKSRWQQGNVFSCSVMHEALHNHYTQKSLSLSPGK
light: [left out - about 100 residues][left out - about 100 residues]
notes: Untargeted control; also called DP47 single chain OX40L trimer; DP47-containing single chain trimeric OX40L
